According to patent publication US20250026841A1 (AP BIOSCIENCES, published 2025):

Key:
[1] = biological target: T1, his-tagged human CD73 (AcroBiosystems, Cat. No. CD3-H52H7) (human, UniProt P21589 27-547); assay: BLI (Octet), bsAb on AHC sensor, hCD73-His 2-fold from 30 nM, 7 points
T1 construct: Bought protein; also called hCD73-His; human CD73 antigen; not shown: His tag
T1 sequence (looked up): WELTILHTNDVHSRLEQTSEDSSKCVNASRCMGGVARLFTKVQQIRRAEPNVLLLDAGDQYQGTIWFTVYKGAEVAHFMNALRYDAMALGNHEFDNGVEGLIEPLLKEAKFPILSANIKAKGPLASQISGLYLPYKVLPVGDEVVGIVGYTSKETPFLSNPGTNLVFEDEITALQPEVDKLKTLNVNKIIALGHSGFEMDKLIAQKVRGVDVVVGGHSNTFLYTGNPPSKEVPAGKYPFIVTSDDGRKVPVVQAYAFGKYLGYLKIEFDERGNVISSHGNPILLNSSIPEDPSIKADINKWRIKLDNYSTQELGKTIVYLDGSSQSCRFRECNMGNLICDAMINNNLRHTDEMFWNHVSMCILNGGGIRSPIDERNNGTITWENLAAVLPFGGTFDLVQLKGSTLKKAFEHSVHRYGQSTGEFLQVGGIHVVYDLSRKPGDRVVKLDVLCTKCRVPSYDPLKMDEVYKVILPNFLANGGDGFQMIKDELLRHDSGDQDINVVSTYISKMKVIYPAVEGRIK
Experimental: The affinity of anti-CD73 mAbs and bsAbs were determined by biolayer interferometry analysis (ForteBIO, USA). In this method, anti-CD73 antibodies were loaded at 5 μg/mL on AHC (Anti-Human IgG Fc Capture, ForteBIO, Cat. No. 18-5060) for signal reach to approximate 0.5 nm. Sensors then were exposed to his-tagged human CD73 (AcroBiosystems, Cat. No. CD3-H52H7)-containing solutions that 2-fold serial diluted from the top concentration 30 nM for total 7 points. Measurements were performed as follows: 1 minute baseline in kinetic buffer, 5 minutes association in hCD73-His-containing solutions, and 5 minutes dissociation into kinetic buffer. The kinetic parameters were calculated and produced by Octet Data Acquisition and Analysis Software.

[2] = biological target: T2, mouse Fc tagged human CD137 protein (AcroBiosystems, Cat #41B-H5256) (human, UniProt Q07011 24-186); assay: BLI (Octet) against human CD137 antigen; the set-up for CD137 is not described for these bsAbs
T2 construct: extracellular domain; Bought protein; also called CD137 extracellular domain fused with mouse Fc tag recombinant protein; human CD137 antigen

| Binder | Kd [1] [pM] | Kd [2] [pM] |
| --- | --- | --- |
| anti-CD73#3-1-28-CD137#54 bsAb (bispecific antibody, human IgG1, lambda, N297A, bsAb of the parental clone #3-1-28; also called Anti-CD73#CR3-1-28-CD137#54 bsAb; #3-1-28-#54) heavy chain with C-terminal CD137#54 scFv: QVQLVQSGAEVKKPGSSVKVSCKASGGTFSSYAISWVRQAPGQGLEWMGRIIPILGIANYAQKFQGRVTITADKSTSTAYMELSSLRSEDTAVYYCARDSPVHYYGSGSYYRDAFDIWGQGTMVTVSSASTKGPSVFPLAPSSKSTSGGTAALGCLVKDYFPEPVTVSWNSGALTSGVHTFPAVLQSSGLYSLSSVVTVPSSSLGTQTYICNVNHKPSNTKVDKKV[sequence of human IgG1 Fc with N297A K322A (EU numbers) not given]GGGGSGGGGSQVQLVQSGAEVKKPGSTVKVSCKASGGTFSSYAISWVRQAPGQGLEWMGRIIPILGIANYAQKFQGRVTITADKSTSTAYMELSSLRSEDTAVYYCASPPYYDSSGYYPLGAFDIWGQGTMVTVSSAGGGGSGGGGSGGGGSGGGGSSYELTQPPSVSVSPGQTASITCSGDKLGEKYASWYQQKAGQSPILVIYQDSKRPSGIPERFSGSNSGNTATLTISGLQAGDEADYYCQAWDGSSTYVFGTGTKVTVLG light chain: QSVLTQPPSASGTPGQRVIISCSGSSSNIGSNSVYWYQQLPGTAPKLLIYSNNQRPSGVPGRFSGSKSGTSASLAISGLRSEDEADYYCAAWDDSLRGPVFGGGTKLTVLGQPKAAPSVTLFPPSSEELQANKATLVCLISDFYPGAVTVAWKADSSPVKAGVETTTPSKQSNNKYAASSYLSLTPEQWKSHRSYSCQVTHEGSTVEKTVAPTECS | 1210 | 729 |
| anti-CD73 #3-1-28-v1-CD137 #54 bsAb (bispecific antibody, human IgG1, lambda, N297A, CD137 #54 scFv linked to the Fc C-terminus; also called #3-1-28-v1 converted to anti-CD73-CD137 bispecific antibody) heavy: QVQLVQSGAEVKKPGSSVKVSCKASGGTFSSYAISWVRQAPGQGLEWMGRIIPILGIANYAQKFQGRVTITADKSTSTAYMELSSLRSEDTAVYYCARDSPVHYYGSGSYYRDAFDIWGQGTMVTVSSASTKGPSVFPLAPSSKSTSGGTAALGCLVKDYFPEPVTVSWNSGALTSGVHTFPAVLQSSGLYSLSSVVTVPSSSLGTQTYICNVNHKPSNTKVDKKV[sequence of human IgG1 Fc with N297A K322A (EU numbers) not given]GGGGSGGGGSQVQLVQSGAEVKKPGSTVKVSCKASGGTFSSYAISWVRQAPGQGLEWMGRIIPILGIANYAQKFQGRVTITADKSTSTAYMELSSLRSEDTAVYYCASPPYYDSSGYYPLGAFDIWGQGTMVTVSSAGGGGSGGGGSGGGGSGGGGSSYELTQPPSVSVSPGQTASITCSGDKLGEKYASWYQQKAGQSPILVIYQDSKRPSGIPERFSGSNSGNTATLTISGLQAGDEADYYCQAWDGSSTYVFGTGTKVTVLG light: QSVLTQPPSASGTPGQRVIISCSGSSSNIGSNSVYWYQQLPGTAPKLLIYANNERPSGVPGRFSGSKSGTSASLAISGLRSEDEADYYCAAWDDSLRGPVFGGGTKLTVLGQPKAAPSVTLFPPSSEELQANKATLVCLISDFYPGAVTVAWKADSSPVKAGVETTTPSKQSNNKYAASSYLSLTPEQWKSHRSYSCQVTHEGSTVEKTVAPTECS | 492 | 652 |
| anti-CD73 #3-1-28-v2-CD137 #54 bsAb (bispecific antibody, human IgG1, lambda, N297A, Engineered IgG1 with the CD137 #54 scFv linked to the Fc C-terminus; also called Anti-CD73 #CR3-1-28-v2-CD137#54) heavy: QVQLVQSGAEVKKPGSSVKVSCKASGGTFSSYAISWVRQAPGQGLEWMGRIIPILGIANYAQKFQGRVTITADKSTSTAYMELSSLRSEDTAVYYCARDSPVHYYGDGHYYRDAFDIWGQGTMVTVSSASTKGPSVFPLAPSSKSTSGGTAALGCLVKDYFPEPVTVSWNSGALTSGVHTFPAVLQSSGLYSLSSVVTVPSSSLGTQTYICNVNHKPSNTKVDKKV[sequence of human IgG1 Fc with N297A K322A (EU numbers) not given]GGGGSGGGGSQVQLVQSGAEVKKPGSTVKVSCKASGGTFSSYAISWVRQAPGQGLEWMGRIIPILGIANYAQKFQGRVTITADKSTSTAYMELSSLRSEDTAVYYCASPPYYDSSGYYPLGAFDIWGQGTMVTVSSAGGGGSGGGGSGGGGSGGGGSSYELTQPPSVSVSPGQTASITCSGDKLGEKYASWYQQKAGQSPILVIYQDSKRPSGIPERFSGSNSGNTATLTISGLQAGDEADYYCQAWDGSSTYVFGTGTKVTVLG light: QSVLTQPPSASGTPGQRVIISCSGSSSNIGSNSVYWYQQLPGTAPKLLIYSNNQRPSGVPGRFSGSKSGTSASLAISGLRSEDEADYYCAAWDDSLRGPVFGGGTKLTVLGQPKAAPSVTLFPPSSEELQANKATLVCLISDFYPGAVTVAWKADSSPVKAGVETTTPSKQSNNKYAASSYLSLTPEQWKSHRSYSCQVTHEGSTVEKTVAPTECS | 637 | 703 |
| anti-CD73 #3-1-28-v3-CD137 #54 bsAb (bispecific antibody, human IgG1, lambda, N297A, Engineered IgG1 with the CD137 #54 scFv linked to the Fc C-terminus; also called Anti-CD73 #CR3-1-28-v3-CD137#54) heavy: QVQLVQSGAEVKKPGSSVKVSCKASGGTFSSYAISWVRQAPGQGLEWMGRIIPILGIANYAQKFQGRVTITADKSTSTAYMELSSLRSEDTAVYYCARDSPVHYYGDGTYYRDSFDIWGQGTMVTVSSASTKGPSVFPLAPSSKSTSGGTAALGCLVKDYFPEPVTVSWNSGALTSGVHTFPAVLQSSGLYSLSSVVTVPSSSLGTQTYICNVNHKPSNTKVDKKV[sequence of human IgG1 Fc with N297A K322A (EU numbers) not given]GGGGSGGGGSQVQLVQSGAEVKKPGSTVKVSCKASGGTFSSYAISWVRQAPGQGLEWMGRIIPILGIANYAQKFQGRVTITADKSTSTAYMELSSLRSEDTAVYYCASPPYYDSSGYYPLGAFDIWGQGTMVTVSSAGGGGSGGGGSGGGGSGGGGSSYELTQPPSVSVSPGQTASITCSGDKLGEKYASWYQQKAGQSPILVIYQDSKRPSGIPERFSGSNSGNTATLTISGLQAGDEADYYCQAWDGSSTYVFGTGTKVTVLG light: QSVLTQPPSASGTPGQRVIISCSGSSSNIGSNSVYWYQQLPGTAPKLLIYSNNQRPSGVPGRFSGSKSGTSASLAISGLRSEDEADYYCAAWDDSLRGPVFGGGTKLTVLGQPKAAPSVTLFPPSSEELQANKATLVCLISDFYPGAVTVAWKADSSPVKAGVETTTPSKQSNNKYAASSYLSLTPEQWKSHRSYSCQVTHEGSTVEKTVAPTECS | 621 | 756 |
